Results reported in US4065570A (priority 1975, dated 1977).
“And” between values parts separate entries of the source, which are not always exact repeats. Identical values can stand only once.

Test system: Coxsackie B3
Assay: microbe, parasite or virus in culture

COc1ccc(C=C2C(=O)N(C(C)=O)C(=O)N2C(C)=O)cc1OC [Example 32, N,N-diacetylated 5-(3',4'-dimethoxybenzal) hydantoin]
% Inhibition (1 μg/ml): 50% and 75%
inhibition at 5 µg/mL (Enterovirus B, B3, Vero, 5 μg/ml): 97%
inhibition at 10 µg/mL (Enterovirus B, B3, Vero, 10 μg/ml): 100%
inhibition at 50 µg/mL (Enterovirus B, B3, Vero, 50 μg/ml): 100%
